These are yes or no findings as the source states them, for the method shown. For part of these data: Binding seen in cells or lysates may run through a third protein. Some binding calls cover weakened binding; strength is not graded here. For part of these data: Sequences can lack the tags named with a protein.
What was measured:
[1] = molecular target: CHASE4_PASPAC (IsmP^1-413), bacterial two-hybrid fusion (Pseudomonas aeruginosa PAO1) (UniProt Q9I243); test: two-hybrid; bacterial two-hybrid (BTH kit, EUROMEDEX): pKT25 and pUT18C plasmids in E. coli BTH101, LB agar with 1 mM IPTG and X-Gal, 30 °C, 24 h; blue colonies, β-galactosidase activity in Miller units
[2] = molecular target: PA0847, bacterial two-hybrid fusion (Pseudomonas aeruginosa PAO1) (UniProt Q9I594); test: as above
[3] = molecular target: IsmP (iron-sensing membrane protein, PA2072), full length, bacterial two-hybrid fusion (Pseudomonas aeruginosa PAO1) (UniProt Q9I243); test: as above
[4] = molecular target: PA2072^His protein (purified IsmP) (Pseudomonas aeruginosa PAO1) (UniProt Q9I243); test: MST; PA2072^His (100 nM) labelled by a His-tag labeling kit, PBST buffer; PA1851 protein (200 nM) serially diluted; NanoTemper Monolith NT.115, 100% LED power, high MST power; both purified
[5] = molecular target: PA2072^His protein (purified IsmP) (Pseudomonas aeruginosa PAO1) (UniProt Q9I243); test: SEC; protein co-purification of IsmP and ImcA and SEC, in detergent DDM
[6] = molecular target: IsmP-Flag (Pseudomonas aeruginosa PAO1) (UniProt Q9I243); test: pull-down; IsmP-Flag co-expressed with ImcA-eGFP in PAO1; supernatant of lysate (50 mM Tris-HCl pH 8.0, 150 mM NaCl, 0.1% Triton X-100) with Flag beads 2 h at 4 °C; western blot

The chains behind the UniProt entries cited, without tags or fusion partners. Where a name states a change or a piece, a line headed by the entry shows the natural chain unless it says otherwise. Residues count along the entry.
UniProt Q9I243: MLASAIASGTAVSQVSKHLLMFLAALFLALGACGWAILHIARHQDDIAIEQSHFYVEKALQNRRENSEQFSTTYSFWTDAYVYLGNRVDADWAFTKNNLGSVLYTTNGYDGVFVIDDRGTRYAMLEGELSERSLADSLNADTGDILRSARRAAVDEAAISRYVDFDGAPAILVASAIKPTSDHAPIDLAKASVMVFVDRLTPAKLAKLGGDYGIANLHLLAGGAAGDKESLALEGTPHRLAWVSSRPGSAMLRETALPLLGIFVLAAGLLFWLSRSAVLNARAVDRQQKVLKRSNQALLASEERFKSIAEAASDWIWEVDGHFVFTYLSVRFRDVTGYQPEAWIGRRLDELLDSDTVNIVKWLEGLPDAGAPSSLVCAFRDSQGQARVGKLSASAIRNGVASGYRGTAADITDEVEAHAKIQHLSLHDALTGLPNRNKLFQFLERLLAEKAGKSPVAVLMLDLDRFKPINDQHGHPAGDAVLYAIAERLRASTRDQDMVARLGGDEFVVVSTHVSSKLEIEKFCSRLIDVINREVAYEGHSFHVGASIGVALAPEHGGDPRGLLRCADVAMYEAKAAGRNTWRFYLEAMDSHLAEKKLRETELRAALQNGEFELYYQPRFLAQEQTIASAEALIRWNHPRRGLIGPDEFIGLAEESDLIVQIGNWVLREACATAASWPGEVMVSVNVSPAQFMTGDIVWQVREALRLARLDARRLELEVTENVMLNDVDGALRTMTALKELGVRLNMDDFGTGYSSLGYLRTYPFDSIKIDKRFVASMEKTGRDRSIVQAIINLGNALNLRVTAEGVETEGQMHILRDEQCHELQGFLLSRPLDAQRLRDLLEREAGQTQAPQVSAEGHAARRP
CHASE4_PASPAC (IsmP^1-413), bacterial two-hybrid fusion: residues 1-413 of Q9I243

B1: ImcA (iron modulator of c-di-GMP A, PA1851), full length, bacterial two-hybrid fusion (protein, UniProt Q9I2P4 1-401)
chain: MLARDSLVQAGLPDNPYARQLRNGFRWLRFEKELENEFREFLSWNSLMQRRAAIGVAFLIWALFIVADWMMVDIRLHPSLFEQLLGVRLGMIGLLLVVWPAAFLPSLRKVGDAIAPYCLLLINLAVLACDVLFEWHGVPRFTQLGATLGILAVFFPLGLAFWACVRLALLCLALNLAVFLLFGGEENLRTNLLNTLYNGLVVLICSFALYLQDYAQREQFLGRRLLGMMAEQDSLTGLVNRRYYELLAQRALEQGAREEKGVALILVDVDDFKAYNDHYGHPAGDAALRQLGVVLRQGARRPLDIAARLGGEEFAVLLYDSEEGNTLAIAERLRQAVEALGIEHLGSSAGPCLTISLGVAYSTSGMGLDALYREADRALYEAKDAGRNAVRVAFRQHDRLE
- binding [1]: binds
- binding [2]: no binding
- binding [3]: binds

B2: PA1851 protein (purified ImcA) (protein, UniProt Q9I2P4 1-401)
chain: B1 chain
- binding [4]: binds
- binding [5]: binds

B3: ImcA-eGFP (protein, UniProt Q9I2P4 1-401)
chain: B1 chain
- binding [6]: binds
